# The inconclusive results got no clear call from the source; some entries with a clear call stand among them for comparison. Potencies beside an inconclusive call are fits to weak or partial responses and may not hold up. The source made the active and inactive calls. Calls come from the whole dose curve; as a rule, active = well fitted cell-killing curve with a large enough effect; inconclusive = small, poorly fitted or top-dose-only effect, or effect the other way; inactive = no such curve, though single readings can be large or run the other way.
# Assay: Viability qHTS for spleen associated tyrosine kinase inhibitor (SYKi) naive MV4-11 cells (AID 1963823); note: nearly all actives have a fitted effect of over 40% in size
# Details: MV4-11 AML viability, CellTiter-Glo luminescence, 72 h; series mostly up to 45 µM
# Method in brief: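 CellTiter-Glo luminescence, 10 min room-temperature incubation, gave viability. Cells: naive MV4-11 (500/well), treated 72 hr at 37 C, 5% CO2.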
# Potency is the fitted concentration of half-maximal effect; tags give direction and shape of the fitted curve.
row,SMILES,Potency
1,CC(C)(C)Nc1nc(Nc2ccc(C(N)=O)cc2)cc(N)c1C#N,active: 1.64 µM
2,CC1(C)CC2C=C(C(=O)O)C3COC(=O)C(O)(CO)C23C1 (configuration not stated),inactive
3,C=C1CCC2[C@](C)(CO)CCC[C@@]2(C)[C@@H]1CCC1=CCOC1=O (some centres not stated),"inconclusive: 10.1 µM [cytotoxic, single point]"
4,CCNC(=O)[C@@H]1CCCN1C(=O)[C@H](CCCN=C(N)N)NC(=O)[C@H](CC(C)C)NC(=O)[C@@H](CC(C)C)NC(=O)[C@H](Cc1ccc(O)cc1)NC(=O)[C@H](CO)NC(=O)[C@H](Cc1c[nH]c2ccccc12)NC(=O)[C@H](Cc1cnc[nH]1)NC(=O)[C@@H]1CCC(=O)N1,inactive
5,CC/C=C\C[C@H]1C(=O)C=C[C@@H]1CCCCCCCC(=O)O,active: 16.4 µM
6,Cc1ccccc1-n1c([C@H](C)Nc2nc(N)nc3nc[nH]c23)nc2cccc(C)c2c1=O,"inconclusive: 11.6 µM [cytotoxic, partial curve]"
7,C=C1C(=O)OC2/C=C(\CO)CC/C=C(\C=O)CC(OC(=O)CC(C)C)C12 (configuration not stated),active: 2.27 µM
8,O=C(CO)[C@@H](O)[C@H](O)[C@@H](O)CO,inactive
9,O=C1C[C@]23C=CCN4CCC5c6cc7c(cc6N1[C@@]5(CC2)C43)OCO7 (some centres not stated),active: 10.1 µM
10,CO[C@H]1/C=C/[C@@](C)(O)/C=C/C(=O)O[C@H](C)[C@@H](C)CC/C=C/1C,"inconclusive: 10.1 µM [cytotoxic, partial curve]"
11,CC1CC(O)CC(C)(C)C1(O)CCO (configuration not stated),inactive
12,CC(=C\C(C)O)/C=C(\C)C(=O)CC1CC(CC(N)=O)CC(=O)O1 (configuration not stated),inactive

# — PubChem BioAssay (NCATS)
